From ChEMBL document CHEMBL4888484, “Replenishing the malaria drug discovery pipeline: Screening and hit evaluation of the MMV Hit Generation Library 1 (HGL1) against asexual blood stage Plasmodium falciparum ,using a nano luciferase reporter read-out” (2022)
Screen size: about 150,000 compounds; about 540 (0.36%) showed an effect of 50% or more. This is one part of the list.

test system: Plasmodium falciparum; test: Primary screen in NF54 nanoGlo assay, in single point, at 2uM, 72h; a lower Z score goes with more inhibition; type: functional, Erythrocyte; conditions: timepoint 72 hour

SMILES	% Inhibition [%]	Z score
CC(C)CC(=O)Nc1ccc2c(c1)cc(C(=O)Nc1ccc(C(F)(F)F)cc1)n2Cc1ccc(C(C)(C)C)cc1	-11	1.46
Cc1cc(C)c(C(=O)N(C)CC(C)(CO)CO)c(C)c1	-8	0.98
O=C(NCc1ccc(N2CCCC2=O)cc1)C1CCCCC1C(=O)N1CCc2ccccc21 (stereo not drawn)	-4	0.56
Cc1ccncc1CC(=O)Nc1cc(S(=O)(=O)N2CCOCC2)ccc1F	-8	1.06
CC(C)[C@H](NS(=O)(=O)c1cccc(C#N)c1)C(N)=O	-19	3.48
Cc1cc(CN(C)C(=O)c2cc3c(s2)CCCCCC3)no1	-8	1.26
O=C(Nc1ccc(N2CCC[C@H](CN3CCCC3)C2)c(C(=O)O)c1)c1ccc(Br)cc1	-9	0.84
O=C1c2ccccc2NC(c2ccccn2)N1CC1CCCO1 (stereo not drawn)	3	-0.51
COc1cccc(-c2nc(C)nc3c2cnn3C)c1	-5	1.07
COc1ccc(NC(=O)[C@@H]2CC(=O)Nc3c(C)c(-c4cccc(Cl)c4)nn32)cc1	-19	2.47
O=C(N[C@H]1CCc2ncccc2C1)c1cccc(B(O)O)c1	-4	0.45
Cc1cc(C[C@@H]2COC[C@@H]2NC(=O)CN(C)Cc2ccccc2F)on1	-5	0.64
CC1=C(CCN2CCN[C@H](C(=O)NCc3cccnc3)C2)C(C)(C)CCC1	-16	3.13
Cc1nc(C)n(C[C@H](O)COCc2ccc3c(c2)OCO3)n1	0	-0.04
C/C=C/Cc1nnc(C(=O)N(C)C[C@H]2CCCCO2)o1	-2	0.28
CN(c1ccc(C#N)cn1)[C@H]1CCN(CC(F)(F)F)C1=O	-9	1.14
CCC(C)(C)NCc1cc(Cl)cc(Cl)c1OC	-1	0.2
CCOc1ccccc1C(=O)N1CCC[C@H](CCc2noc(-c3ccccn3)n2)C1	3	-0.56
COc1ccccc1N1C(=O)[C@@H]2Cc3c([nH]c4ccccc34)CN2C1=O	0	0
O=C(c1cccc(-n2ccnc2)n1)N1CCN[C@H](c2cccc(Cl)c2)C1	-27	3.18
C[C@H]1CN(C(=O)C2CCCC2)C[C@@H]1c1nc(-c2ccccc2)no1	-5	0.58

SMILES	% Inhibition [%]	Z score
COC(=O)Cc1ccc(F)c(-c2ccc(C(=O)N[C@H]3CCNC3=O)cc2)c1	-3	0.45
COCc1cc(CNC(C)CC2CCCO2)ccc1F (stereo not drawn)	-3	0.34
CN(CCc1noc(COc2ccc(Cl)cc2)n1)S(=O)(=O)c1ccccc1	-18	1.77
CNC(=O)[C@H]1CCN(S(=O)(=O)c2sccc2Cl)C1	-9	1.49
CC(C)NC(=O)CN[C@@H](CO)c1ccc(Cl)c(F)c1	-9	1.07
COc1cccc(Cl)c1CN[C@H]1CCCc2occc21	-24	2.8
Cc1cccc2ncnc(N3CCC(N4CCCS4(=O)=O)CC3)c12	0	0.04
O=C(Nc1ccccc1Cl)N1CC(F)(F)C[C@H]1CN1CCCCCC1	-13	2.28
Cc1cccnc1N(C(=O)c1ccc(F)cc1)C(=O)c1ccc(F)cc1	1	-0.17
Cc1ccc([C@]2(C)NC(=O)N(CC(=O)Nc3cccc(C)c3C)C2=O)o1	1	-0.09
Cc1ccc(C(=O)[C@@H]2[C@@H]3CCCN3[C@]3(C(=O)Nc4ccc(Cl)cc43)[C@@]23C(=O)Nc2ccccc23)cc1	-6	0.75
Cn1c(-c2cnn(Cc3ccccc3)c2)nc2cc(Br)ccc21	-3	0.39
Cc1ccc(C)n1-c1nc2ccc(C(=O)N[C@@H]3C=CS(=O)(=O)C3)cc2s1	16	-2.15
Cc1n[nH]c(C)c1CN(C)C[C@H]1CCCN(Cc2ccco2)C1	-10	1.51
CCCn1cc(CNc2nnc(C(F)F)s2)cn1	-11	1.67
Cc1ccc(Cl)c(NC(=O)N(C)C[C@H]2CC(=O)N(C(C)(C)C)C2)c1	-10	0.93
O=S1(=O)CCCC1CNC(c1ccc(F)cc1)c1ncc[nH]1 (stereo not drawn)	-15	1.7
Cc1nc([C@H](NC(=O)CCc2nc(-c3ccsc3)no2)c2ccccc2)n[nH]1	-5	0.77
CN(CCS(=O)(=O)NCC1CCCCC1)S(=O)(=O)c1cccs1	-8	1.2
CCc1c(C(=O)N2C[C@H](N)C[C@H]2C(=O)NC(C)C)csc1C	-25	3.41
COc1ccccc1-c1noc2ncnc(N(C)Cc3ccco3)c12	-7	0.85

SMILES	% Inhibition [%]	Z score
Cc1nnc(NCCCc2csc(N)n2)o1	-4	0.7
CC1=NN(c2ccc(C(=O)NC[C@H]3CCCCN(Cc4ccccc4)C3)cc2)CC1	-4	0.5
O=S(=O)(Nc1nnc2[nH]cnn12)c1ccc2c(c1)CCCC2	3	-0.36
COc1ccc(-c2nccn2CCS(C)(=O)=O)c2ccccc12	-11	1.61
COc1ccc(NS(=O)(=O)c2cc(-c3ccn[nH]3)cs2)cc1F	-4	0.72
CN(C)C(=O)[C@H](Nc1cccc2c1CCCC2)c1ccccc1	-9	1.77
COc1cccc(-c2ccc(N3CCCN(C(=O)CN(C[C@H]4CCCO4)C(=O)C4CCC4)CC3)nn2)c1	-3	0.44
O=C1[C@H](c2cccnc2)N(CCCc2ccccc2)C(=O)CN1c1ccccc1	40	-4.49
Cc1oc2ncnc(N3CCC(C(=O)NCCc4ccco4)CC3)c2c1C	-4	0.44
Cc1ccccc1OC[C@H](C)NC(=O)NC1(C(N)=O)CCCC1	-24	2.43
COc1ncnc(C)c1-c1cccc(C(=O)N2CCCN(C(C)=O)CC2)c1	-6	1.06
CCN1C(=O)CO[C@H](c2nc(-c3ncccn3)no2)[C@H]1c1ccccc1	-7	0.9
Cc1cnn(CCNC(=O)[C@H](C)N2CCN(C)CC2)c1	18	-1.75
Cn1c2c(c(=O)n(C)c1=O)[C@H](c1ccc(OCc3ccccc3)cc1)NC(=O)N2	-4	0.53
CCCN(CC(=O)N1CCN(c2ccc(-c3ccc(OC)c(OC)c3)nn2)CC1)C(=O)c1ccc2c(c1)OCO2	-6	0.64
Cc1ccc(/N=C2\CCCN2C)c(C#N)c1	-3	0.34
CC(C)N(C)C(=O)c1nn(C)c2c1COCC2	0	0.06
COCC1(CNC(=O)N2CCC([C@@H](O)CCc3ccccc3)CC2)CCC1	-2	0.36
c1ccc2c(c1)CC(NCCC[C@H]1CCOC1)C2	0	0.06
Fc1ccccc1-c1nc2ccc(-c3ccc(C(F)(F)F)cc3)cc2o1	-6	0.75
O=C(N[C@H]1CCOC1)c1cnn(-c2ncc3c(n2)-c2ccccc2CCC3)c1C1CC1	4	-0.61

SMILES	% Inhibition [%]	Z score
O=C(c1cc2n(n1)CCCO2)N1CCN(c2ncccn2)CC1	-15	2.38
c1ccc(CC(Cc2ccccc2)CN2CCC(n3cncn3)CC2)cc1	-7	0.75
C[C@]12C(=O)N(C3CCN(Cc4ccccc4)CC3)CC(=O)N1CCc1c2[nH]c2ccccc12	1	-0.15
Cc1oc(-c2cccc(F)c2)nc1CN(C)C(C)C	-9	1.43
CCOc1ccc(N(CC#N)S(=O)(=O)c2ccc3nncn3c2)cc1	7	-1.11
Cc1noc(N)c1C(=O)OCc1cc(-c2ccc(Cl)cc2)no1	-10	1.3
CNS(=O)(=O)CC(=O)N1CCC[C@H]1C(F)(F)F	0	0.1
Cc1cc(C(=O)NC2(CF)CCOCC2)nn1[C@@H](C)C1CC1	2	-0.35
Cn1ncnc1CNc1ccccc1C(=O)N1CCC[C@H](O)C1	-6	1.15
CCc1nc(N2CC[C@@]3(CCCN(CCC4CCCCC4)C3)C2)no1	-1	0.12
OCc1ccc(Oc2cccc(CN3CCCC3)c2Cl)cc1	0	-0.05
Cc1c(C(=O)NC[C@H]2CCCOC2)[nH]c2c(Cl)cccc12	-9	1.62
Cc1cc(CN(C)Cc2cc(CN(C)C)cs2)ccn1	-8	1.62
Cc1cc(C)c2[nH]c(C(=O)NCCc3csc(N)n3)c(C)c2c1	-3	0.61
CC(C)CN1CCC[C@H]1C(=O)Nc1ccc(-c2cscn2)cc1	-1	0.22
CCCn1nnnc1CN1CCC[C@H]1CO	-7	0.97
Cc1ccoc1CN1CCN(c2ncccn2)CC1	-7	1.09
O=C(Nc1c(-c2ccc(F)cc2)n[nH]c1C1CC1)C1CCCC1	4	-0.55
C#CCCOC(=O)[C@H](C)NC(=O)C1CCC1	-7	0.94
O=C(NCCn1nccn1)c1ccc(Br)o1	-5	0.71
COc1ccc(C[C@@H]2C3=C(CCCC3)CCN2C(=O)c2cc(C)on2)cc1	-5	0.97
